Laboratory results as given in PubChem BioAssay AID894 (National Center for Advancing Translational Sciences (NCATS), 2007).
Screen size: about 150,000 compounds; about 6,500 (4.3%) were called active. Inconclusive results, whose numbers are uncertain, are shown with a selection of clear calls. Calls follow the shape of the dose curve; as a rule, active = well fitted inhibition curve with a large enough effect (not every such curve was filed as active); inconclusive = small, poorly fitted or top-dose-only effect, or another doubt; inactive = no such curve, though single readings can be large or run the other way. Potencies beside an inconclusive call are fits to weak or partial responses and may not hold up.

Target: 15-hydroxyprostaglandin dehydrogenase [NAD(+)] (Homo sapiens) (UniProt P15428)
Assay: qHTS Assay for Inhibitors of HPGD (15-Hydroxyprostaglandin Dehydrogenase)
Details: purified HPGD, NADH fluorescence kinetic, PGE2 substrate; activity change, negative = inhibition: hits give low values
Summary of the method: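 NADH formation kinetics: reaction with 30 uM PGE2 and 1 mM NAD+ (final), 20 nM enzyme, Tris-HCl pH 8 with Tween 20, after 15 min compound preincubation at room temperature. Fluorescence change, last versus first of five reads.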
% is scaled to controls: 0 for no effect and ±100 for the full control effect; potency is read from the fitted curve at half-maximal effect; tags tell the direction and shape of the fitted curve.

Sequence of UniProt P15428 (P15428 whole entry, looked up): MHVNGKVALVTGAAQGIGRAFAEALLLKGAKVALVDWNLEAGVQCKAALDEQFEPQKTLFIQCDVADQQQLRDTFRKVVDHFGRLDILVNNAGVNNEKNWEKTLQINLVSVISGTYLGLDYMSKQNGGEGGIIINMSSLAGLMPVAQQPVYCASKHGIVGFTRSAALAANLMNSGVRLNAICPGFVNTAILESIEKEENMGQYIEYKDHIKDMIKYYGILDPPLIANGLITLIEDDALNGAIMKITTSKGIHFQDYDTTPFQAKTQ

Activity change, negative = inhibition, inactive:
O=C(CSc1nc2ccccc2c(=O)n1Cc1ccco1)N1CCCCCC1 -20.3%, O=C(Nc1ccc(N2CCN(C(=O)c3cccs3)CC2)c(Cl)c1)c1ccco1 -5.2%, O=[N+]([O-])c1ccc2nccn2c1 -5.28%, C=CC(=O)OCCOCCOC(=O)C=C -3.79%, Cc1ccc(-n2c(C)cc(C(=O)COc3cccnc3[N+](=O)[O-])c2C)cc1 -18.3%, CCC(Sc1nc(C)cc(=O)[nH]1)C(=O)Nc1sc2c(c1C#N)CCCC2 (stereo not given) -11.4%, CS(=O)(=O)c1ccc(N)cc1 3.06%, COc1ccc(Cl)cc1S(=O)(=O)Oc1ccc(NC(C)=O)cc1 2.49%, COc1ccc(C2C(C(=O)c3ccco3)=C(O)C(=O)N2Cc2cccnc2)cc1OC (stereo not given) -14%, Cc1ccc(NC(=S)NC2CCCC2)cc1 -9.46%, CC(=O)/C(=N/Nc1ccccc1)N1CCOCC1 -20.5%

Potency, active:
O=C(Cc1cccs1)N1CCCC(c2nc3c(nnn3Cc3ccc(F)cc3)c(=O)[nH]2)C1 (stereo not given) 28.2 µM, N#CC1=C(N)SC(N)=C(C#N)C1CCc1ccccc1 14.1 µM, COc1cccc(NC(=O)CSc2ccccn2)c1 28.2 µM, O=C(O)c1ccc2c(c1)C(=O)N(Cc1ccccc1)C2=O 14.1 µM, Cc1ccc(C(=O)NC=C(Cl)Cl)cc1 28.2 µM

Potency, inconclusive:
CC(C)OC(=O)c1c(N)n(CCCN2CCOCC2)c2nc3ccccc3nc12 31.6 µM [inhibitor, partial curve], CC(C)Oc1cc2oc(=O)c3c(c2cc1Cl)CCC3 11.2 µM [inhibitor, partial curve], O=C(c1ccco1)[C@@H]1[C@@H]2C(=O)N(c3ccccc3)C(=O)[C@@H]2C2c3ccccc3C=CN21 (stereo not given in full) 31.6 µM [inhibitor, single point], CN1CCN(c2ncc3nc(-c4ccc(Cl)cc4)c(=O)n(CCC#N)c3n2)CC1 3.55 µM [inhibitor, partial curve], COc1ccc(/C=C/c2nc3ccccc3n2Cc2ccc(OC)c(OC)c2)cc1 25.1 µM [inhibitor, partial curve], Cc1ccccc1-n1c(Cc2cccs2)n[nH]c1=S 39.8 µM [inhibitor, single point], CSc1ccccc1-c1nnc(-c2ccc(C)cc2)o1 39.8 µM [inhibitor, partial curve], Nc1c(C(=O)NC2CCCCC2)nsc1C(=O)OCC(=O)NC1CCCCC1 25.1 µM [inhibitor, partial curve], COc1ccc(-c2nc(C#N)c(NCCCn3ccnc3)o2)cc1OC 35.5 µM [inhibitor, partial curve], CCOC(=O)c1ccccc1NCN1C(=O)CSC1=O 31.6 µM [inhibitor, partial curve], O=C(COC(=O)c1ccccc1Nc1ccccc1)c1ccccc1 31.6 µM [inhibitor, single point], CC(C)c1ccc(/C=N/n2nnnc2Nc2ccccc2)cc1 31.6 µM [inhibitor, partial curve], Cc1cc(SCC(=O)c2cccs2)n2nc(C)c(-c3ccccc3)c2n1 12.6 µM [inhibitor, partial curve], CCc1ccc(N2C(=O)c3ccc4c5c(ccc(c35)C2=O)CC4)cc1 20 µM [inhibitor, partial curve], COc1cc(/C=C(\C#N)c2ccccn2)ccc1OCC(=O)Nc1ccc(Br)cc1 14.1 µM [inhibitor, partial curve], N#CC1=C2C=CC=CN2CC1=O 25.1 µM [inhibitor, partial curve], COc1ccc(/C=C(\C#N)C(=O)NCCc2ccccc2)cc1OCc1ccccc1 35.5 µM [inhibitor, partial curve], Cc1cc(NC(=O)COC(=O)C(Cc2ccccc2)NC(=O)c2ccco2)no1 (stereo not given) 28.2 µM [inhibitor, partial curve], COc1ccc(C(=O)c2ccc(Br)cc2)c2ccccc12 31.6 µM [inhibitor, single point], Cc1cc(=O)[nH]c2n[nH]c(-c3ccccc3)c12 28.2 µM [inhibitor, single point], Clc1ccc(-c2ccc(/C=N/Nc3cc(N4CCOCC4)nc(N4CCOCC4)n3)o2)cc1 22.4 µM [inhibitor, partial curve], COc1cc(C(=O)Nc2sc3c(c2C(=O)NCc2ccco2)CCCC3)cc(OC)c1OC 31.6 µM [inhibitor, partial curve], CSc1nc2ccccc2cc1/C=C(\C#N)c1ccccc1 11.2 µM [inhibitor, partial curve], O=S1(=O)N=C(Nc2ccc(S(=O)(=O)N3CCCCC3)cc2)c2ccccc21 22.4 µM [inhibitor, partial curve], CCSc1nnc(NC(=O)CN(C)S(=O)(=O)c2ccc(F)cc2)s1 25.1 µM [inhibitor, partial curve, poor fit], COC(=O)CCc1c(C)c(C#N)c2nc3ccccc3n2c1N1CCCC1 25.1 µM [inhibitor, single point], O=C(CSc1nc(-c2ccco2)cc(C(F)(F)F)n1)NCC1CCCO1 (stereo not given) 39.8 µM [inhibitor, single point], O=C(Nc1cc(S(=O)(=O)Nc2ccc(Cl)cc2)ccc1N1CCCCC1)c1ccc(F)cc1Cl 35.5 µM [inhibitor, single point], O=C(Oc1ccccc1)N1CCC2(CCCN(c3ncccn3)C2)CC1 22.4 µM [inhibitor, partial curve]
